# Measured values: PubChem BioAssay AID488969 (Vanderbilt High Throughput Screening Facility, 2010)
# Whole data set: some 110,000 compounds, median “z-score” near -0.1, cut for the highest 2% near 2. The list shows a part of the results. The source made the active and inactive calls.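 Rule for the calls: active = z-score in the third read window above 3 or below -3; inactive = the rest.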
# Biological target: Metabotropic glutamate receptor 8 (Rattus norvegicus) (UniProt P70579)
# Assay: mGluR8 Gi/Go-coupled signaling modulation – cell-based, rat, thallium flux, HTS, primary screen (AID 488969)
# Details: HEK293 rat mGluR8, GIRK (G protein-gated inwardly rectifying potassium channel) thallium flux, FluoZin2; at 10 µM; stronger effect = higher value; submaximal glutamate (EC20) added with thallium
# UniProt P70579, sequence (P70579 whole entry, looked up): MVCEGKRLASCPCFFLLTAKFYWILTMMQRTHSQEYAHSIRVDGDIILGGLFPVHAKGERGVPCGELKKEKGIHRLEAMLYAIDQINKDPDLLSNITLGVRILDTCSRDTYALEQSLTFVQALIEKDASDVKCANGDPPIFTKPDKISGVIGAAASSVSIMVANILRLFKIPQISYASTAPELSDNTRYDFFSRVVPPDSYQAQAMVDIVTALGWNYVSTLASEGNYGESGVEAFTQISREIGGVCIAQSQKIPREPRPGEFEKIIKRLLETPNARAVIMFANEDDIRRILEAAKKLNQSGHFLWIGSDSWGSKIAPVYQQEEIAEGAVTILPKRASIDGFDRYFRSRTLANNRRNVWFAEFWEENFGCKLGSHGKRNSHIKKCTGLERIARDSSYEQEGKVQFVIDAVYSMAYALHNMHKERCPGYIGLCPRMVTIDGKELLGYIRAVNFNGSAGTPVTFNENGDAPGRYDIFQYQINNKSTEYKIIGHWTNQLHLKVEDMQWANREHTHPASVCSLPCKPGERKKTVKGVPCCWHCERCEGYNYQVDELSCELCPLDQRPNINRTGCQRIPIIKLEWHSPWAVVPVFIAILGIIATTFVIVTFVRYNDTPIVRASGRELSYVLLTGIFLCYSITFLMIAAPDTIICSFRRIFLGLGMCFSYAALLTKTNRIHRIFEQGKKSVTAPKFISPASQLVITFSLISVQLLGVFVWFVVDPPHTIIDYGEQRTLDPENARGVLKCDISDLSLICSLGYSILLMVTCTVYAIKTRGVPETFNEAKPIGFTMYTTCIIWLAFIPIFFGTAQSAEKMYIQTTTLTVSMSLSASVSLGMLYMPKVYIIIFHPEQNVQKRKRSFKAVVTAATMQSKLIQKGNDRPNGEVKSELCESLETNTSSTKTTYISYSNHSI
row,Structure (SMILES),z-score
1,Cn1ncc(C#N)c1NC(=O)c1nn2cccnc2c1Cl,0.268
2,O=C1CSc2ccc(C(=O)N3CCN(c4ccccn4)CC3)cc2N1,-0.908
3,CNc1nc(SC)nc(N2CCOCC2)n1,0.539
4,Cc1ccc(S(=O)(=O)N(C)CC(=O)OCC(=O)N2CCN(c3ccccc3)CC2)cc1,-0.485
5,N#Cc1nc(COc2ccccc2)oc1N1CCCC1,-0.693
6,COc1ccc(C/C(C)=N/NC(=S)Nc2ccc(C)c(C)c2)cc1,1.65
7,CCCCNC(=S)NC1CCCC1,-0.0844
8,Cc1ccc(S(=O)(=O)N2CCN(C(=O)CN3CCOCC3)C2c2ccccc2)cc1 (stereo not drawn),-0.22
9,COC(=O)CN(c1ccc(OC)cc1)S(=O)(=O)c1ccc(OC)c(OC)c1,0.17
10,OCCN=C1CCCc2c1[nH]c1ccc(Br)cc21,0.379
11,CC(=O)Nc1ccc(NC(=O)CSc2ccc(C)cc2)cc1,0.00682
12,Cc1ccccc1CS(=O)(=O)Cc1ccc(C(=O)NCCCN2CCCC2=O)o1,0.731
13,O=C(c1cccs1)N1CCN(S(=O)(=O)N2CCOCC2)CC1,-0.194
14,Cc1ccc(NC(=O)Nc2nnc(Cc3ccc([N+](=O)[O-])cc3)s2)cc1,-0.166
15,COc1ccc(CCC(=O)NC(C)C)cc1,0.289
16,CCOCCn1c(COc2ccccc2)nc2ccccc21,-1.53
17,COc1ccc(NC(=O)CSc2nnc(-c3ccccn3)n2N)cc1,0.609
18,O=C(NCCN=C1NS(=O)(=O)c2ccccc21)c1ccc(S(=O)(=O)N2CCOCC2)cc1,0.246
19,Cc1ccc(NC(=O)C(C)c2ccc(-c3ccccc3)c(F)c2)c(C)c1 (stereo not drawn),-0.182
20,Cc1ccccc1NC(=O)N1CCCC(c2nc(-c3ccc(F)cc3)no2)C1 (stereo not drawn),-0.159
21,COc1ccc(CNC(=O)COC(=O)C2CC3C=CC2C3)cc1 (stereo not drawn),-0.206
22,COc1ccc(-c2nc(CS(=O)CC(=O)NC3CCCc4ccccc43)c(C)o2)cc1OC (stereo not drawn),-0.169
23,Cn1c(C(=O)NCCCN2CCCC2=O)cc2c(=O)n(C)c3ccccc3c21,-0.963

row,Structure (SMILES),z-score
1,O=C(CNS(=O)(=O)c1ccc(F)cc1)N1CCN(c2ccccc2)CC1,-0.501
2,Cc1ccsc1C(=O)NNC(=O)Nc1ccc(Cl)c(Cl)c1,-0.13
3,O=C(CSc1nnc(Cn2nnc(-c3ccccc3)n2)n1-c1ccccc1)Nc1ccc(F)cc1,-0.283
4,O=C(NCc1nnc2c3ccccc3c(-c3ccccc3)nn12)c1ccc(Cl)cc1,-0.606
5,Brc1c(OCCOCCn2cncn2)ccc2ccccc12,0.829
6,O=C(COC(=O)c1ccccc1NC(=O)c1ccccc1)c1ccc([N+](=O)[O-])cc1,-0.202
7,O=[N+]([O-])c1ccc2c(c1)C(N1CCOCC1)/C(=C/COc1ccc(F)cc1)O2 (stereo not drawn),-0.295
8,Cc1c(C(=O)NCc2ccccc2)oc2ccc(S(=O)(=O)N3CCCC3)cc12,0.104
9,COC(=O)C1C2C=CC3(CN(C(C)C)C(=O)C13)O2 (stereo not drawn),-0.0902
10,CC(C)COC(=O)C(C#N)c1nc2ccccc2nc1N1CCN(Cc2ccc3c(c2)OCO3)CC1 (stereo not drawn),-0.426
11,CC(C)(C)C1CCC2(CC1)NC(CO)(CO)CO2 (stereo not drawn),0.239
12,CC(=O)c1cc2c(cc1NC(=O)CCn1cccc1)OCO2,-0.085
13,CC1CC(C)CN(S(=O)(=O)c2cccc3cccnc23)C1 (stereo not drawn),-0.494
14,NC(=O)c1cccc2c(=O)oc3ccccc3c12,0.0601
15,COc1ccc(N2CCN(C(=O)C3CC(O)CN3S(=O)(=O)c3ccc([N+](=O)[O-])cc3)CC2)cc1 (stereo not drawn),0.00817
16,CNC(=O)CCCc1nc(-c2ccccc2Cl)no1,0.0193
17,CNc1ccc(Br)cc(C(=O)/C=C/c2ccc(OC)cc2)c1=O,0.019
18,CC(C)C1OC2(C)OC(=N)C1(C#N)C(C#N)(C#N)C2c1ccccc1 (stereo not drawn),-0.139
19,CC(C)(C)C(=O)NC(NC(=S)Nc1sc2c(c1C#N)CCCC2)C(Cl)(Cl)Cl (stereo not drawn),-0.0454
20,CCn1c2ccccc2c2cc(CN3CCN(S(=O)(=O)Cc4ccccc4)CC3)ccc21,-0.382
21,O=c1cc2c(nn1Cc1cccc(Cl)c1)-c1ccccc1CC2,-0.336
22,COc1cccc2c1OC1(C)CC2NC(=O)N1 (stereo not drawn),-0.2
23,CCCOc1cccc(CN2CCCCC2c2cccnc2)c1 (stereo not drawn),-0.422

row,Structure (SMILES),z-score
1,Cc1ccc(Nc2nc(N)c([N+](=O)[O-])c(N3CCOCC3)n2)cc1C,-0.153
2,C/C=C/c1ccc(OCCCCn2cncn2)c(OC)c1,-0.124
3,Nc1nncn1C(=O)c1cc(Br)ccc1Cl,-0.0769
4,CCOc1ccccc1N(CC(=O)N1CCCCCC1)S(C)(=O)=O,0.193
5,Cc1csc(Sc2nc3c(c(=O)[nH]c(=O)n3C)n2CCCc2ccccc2)n1,-0.516
6,CCn1c(N)c(C(=O)NC2CCCCC2)sc1=S,-0.324
7,Cc1cc(C)nc(SCc2cc(=O)c(OC(=O)c3ccc(Br)o3)co2)n1,-0.521
8,COc1ccccc1N1CCN(C(=O)CN(c2cc(C)cc(C)c2)S(C)(=O)=O)CC1,0.122
9,COc1ccccc1N1CCN(S(=O)(=O)c2cc(C)sc2C)CC1,-0.63
10,Cc1ccc(/C=C/C(=O)N2CCCN(C(=O)/C=C/c3ccc(C)cc3)CC2)cc1,-0.643
11,Cc1cccc(-n2c(=O)c3c(n4cnnc24)-c2ccccc2CC32CCCCC2)c1,-0.863
12,N#CCSc1nc(Nc2ccc3c(c2)OCO3)c2ccccc2n1,-0.556
13,CC(=O)OCCc1c(C)nc2nc[nH]n2c1=O,-1.4
14,COc1ccc(N(CC(O)Cn2c3ccccc3c3ccccc32)S(=O)(=O)c2ccccc2)cc1 (stereo not drawn),-0.0828
15,O=c1oc2c(CN3CCOCC3)c(O)ccc2c2c1CCC2,0.00993
16,Cc1ccccc1CN1CCN(C/C=C/c2ccccc2)CC1,0.147
17,c1coc(CNC2CCCCCCC2)c1,0.687
18,O=C(O)Cn1c(SCc2cccc3ccccc23)nc2ccccc21,1.11
19,Cc1c(C(=O)OCC(C)C)[nH]c2c1C(=O)CC(c1ccco1)C2 (stereo not drawn),0.605
20,O=C(Nc1ccc2oc(-c3ccccc3)nc2c1)c1ccccc1F,0.205
21,CSc1cc(C)nc(N(C)C(C)=O)n1,0.129
22,CCCNC(=O)c1c(NC(=O)C2COc3ccccc3O2)sc2c1CCCC2 (stereo not drawn),0.754
23,COc1ccccc1N(CC(=O)NCC(C)C)S(=O)(=O)c1cccs1,-0.207

row,Structure (SMILES),z-score
1,COc1ccc(OC)c(NC(=O)c2cccc(Cn3cc(Br)c([N+](=O)[O-])n3)c2)c1,-0.176
2,O=c1oc2ccccc2c2c1ncn2CCN1CCOCC1,-0.358
3,CSc1nc(=O)n2cccc(C)c2n1,-0.224
4,O=c1c(Cl)c(NCc2ccccc2)cnn1C12CC3CC(CC(C3)C1)C2,-0.198
5,O=C(/C=N/O)NCCCN1CCCCCC1,0.186
6,C=CCNC(=O)COC(=O)c1cc(S(=O)(=O)N2CCOCC2)ccc1N1CCCCC1,-0.5
7,CCOC(=O)CCC(NC(=O)c1ccc(NCN2C(=O)c3ccccc3C2=O)cc1)C(=O)OCC (stereo not drawn),-1.04
8,CCc1ccc(C(=O)/C=C/Nc2ccc(S(=O)(=O)Nc3onc(C)c3C)cc2)cc1,0.0301
9,O=C(Nc1c(C(=O)O)oc2ccc(Br)cc12)c1ccccc1,-0.64
10,CC(/C=N/n1c(-c2ccccc2)n[nH]c1=S)=C\c1ccco1,active: 6.02
11,COc1ccc(OC)c(C(=O)CSc2nc3ccccc3n2CC(=O)NC(C)(C)C)c1,-0.0139
12,O=C(COc1ccc2ccccc2c1)NNC(=O)c1cnccn1,0.127
13,CCN(CC)C(=O)C1CCCN(Cc2ccccc2)C1 (stereo not drawn),0.12
14,Cc1nn(-c2ccc(C(F)(F)F)cn2)c(C)c1Oc1ccccc1O,2.25
15,CCOC(=O)C(=O)/C(C#N)=C/Nc1ccc(Cl)cc1,-0.436
16,Cn1c(C(=O)NCc2ccccn2)cc2c(=O)n3ccccc3nc21,-0.626
17,COC(=O)c1ccc(COc2cccc3c2CCN(Cc2ccccc2)C3=O)o1,-0.45
18,O=C(NCc1ccccc1)N1CCN(c2ccc(F)cc2)CC1,-0.204
19,O=c1cc(N2CCc3ccccc3C2)[nH]c(=O)n1Cc1ccc(F)cc1,-0.108
20,Cn1c(=O)[nH]c(=O)c2c1nc(NCc1ccccc1)n2CCCc1ccccc1,-0.132
21,Cc1ccc(/C(N)=N/OC(=O)c2cccs2)cc1,-0.371
22,COc1ccc(S(=O)(=O)N(C)CC(=O)Nc2ccc(C(F)(F)F)cc2)cc1Cl,1.57
23,CCCNS(=O)(=O)c1ccc(CCC(=O)N2CCC(C)CC2)cc1,-0.21

row,Structure (SMILES),z-score
1,CCOc1ccccc1CNC(=O)C1CCCN(c2nc3ccccc3o2)C1 (stereo not drawn),-0.0784
2,Cc1cc(OCn2ccc(C(=O)O)n2)ccc1Cl,4.79e-05
3,COc1ccc(N(C(=O)c2ccco2)S(=O)(=O)c2cc(Cl)c(Cl)cc2Cl)cc1,-0.048
4,CC(=O)NC(=S)Nc1ccc(NC(=O)COc2ccc(Cl)cc2)cc1,-0.0633
5,Cc1oc2ccc(OCc3ccc(F)cc3)cc2c1C(=O)O,-0.0289
6,COc1ccc(N2CCN(c3nc(NCCc4ccc(OC)c(OC)c4)nc(OC)n3)CC2)cc1,-0.506
7,CCNC(=O)CC1C(=O)N(c2ccccc2)C(=O)N1CCC(C)C (stereo not drawn),-0.12
8,c1coc(-c2nc3c4c5c(sc4ncn3n2)CCCC5)c1,-0.00263
9,O=C(NCCc1ccccc1)c1ccccc1NS(=O)(=O)N1CCCC1,0.642
10,CC(C)CN1CN(Cc2ccco2)CNC1=S,-0.639
11,COc1ccccc1CNC(=O)C[n+]1ccccc1,0.448
12,CCCn1c(SC(C(=O)Nc2cc(C)ccc2OC)c2ccccc2)nc2ccccc2c1=O (stereo not drawn),active: 3.61
13,Cn1nnnc1SCC(=O)Nc1ccc(Br)cc1Cl,0.229
14,COc1cccc(NC(=S)NCc2ccccn2)c1,-0.104
15,O=C(CC(c1ccco1)C1CCCCC1=O)c1ccco1 (stereo not drawn),0.987
16,CC(C)NC(=O)c1ccc2c(=O)n(Cc3ccco3)c(=S)[nH]c2c1,0.167
17,Clc1ccc2nc(N3CCCCC3)[nH]c2c1,-0.459
18,CCC(C)NC(=O)C1CCN(C(=O)N(C)C)CC1 (stereo not drawn),0.522
19,CCN(CC)C(=O)CP(=O)(c1ccccc1)c1ccccc1,-0.0476
20,COc1ccccc1NC(=O)N1CCCC1C(=O)NCc1ccc(F)cc1 (stereo not drawn),1.1
21,Cc1cc(NC(=O)CSc2nc(-c3ccco3)cc(C(F)(F)F)n2)no1,-0.109
